Measured values: the BET-seq Pho4 binding data (Le et al. 2018)
The other results are listed elsewhere or left out. The energies were worked out here from pooled read counts, against the library average; single values are noisy.

Molecular target: T1, Pho4 (S. cerevisiae) (UniProt P07270)
T1 sequence: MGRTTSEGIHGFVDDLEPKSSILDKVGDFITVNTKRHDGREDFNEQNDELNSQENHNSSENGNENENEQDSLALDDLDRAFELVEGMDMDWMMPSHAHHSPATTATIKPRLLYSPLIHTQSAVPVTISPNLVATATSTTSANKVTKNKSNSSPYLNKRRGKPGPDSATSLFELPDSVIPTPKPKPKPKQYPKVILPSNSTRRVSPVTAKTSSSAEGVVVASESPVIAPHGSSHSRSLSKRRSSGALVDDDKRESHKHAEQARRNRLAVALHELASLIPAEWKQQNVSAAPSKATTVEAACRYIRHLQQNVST
Experiment: relative binding free energy (BET-seq); higher = weaker binding
Conditions: reference: library average

Row | Sequence | relative binding free energy [kcal/mol]
1 | GGCGTCACGTGCAGGG | 0.05
2 | ATAATCACGTGAAGGA | 0.27
3 | ACGTTCACGTGTGAGG | 0.17
4 | TTTTACACGTGTGTGC | 0.15
5 | ATACTCACGTGTAAGG | 0.22
6 | AACGTCACGTGAGTTG | 0.24
7 | TCGCACACGTGTTGGT | 0.1
8 | GGTGGCACGTGAACGT | 0.13
9 | GTGATCACGTGGATGC | 0.19
10 | GGTTACACGTGGGTTC | 0.15
11 | GTAGTCACGTGATTCG | 0.18
12 | TGTGGCACGTGGACAG | -0.06
13 | TTTAGCACGTGCGCGG | -0.26
14 | ACTGGCACGTGCATGG | -0.12
15 | GTTTACACGTGGGTGA | -0.03
16 | GATGGCACGTGGTGTC | -0.13
17 | GAAAACACGTGGTTGT | 0.04
18 | GTGGGCACGTGGTGCC | -0.12
19 | GCGAGCACGTGATGTG | 0.19
20 | GGGAGCACGTGTGGAG | -0.05
21 | ATATTCACGTGAGGCG | 0.37
22 | TTCGTCACGTGCGTTA | -0.03
23 | GTATGCACGTGTTTGA | 0.04
24 | ATTCGCACGTGTAAGT | 0.01
25 | TGTTGCACGTGGCTCT | -0.15

Row | Sequence | relative binding free energy [kcal/mol]
26 | GTATGCACGTGGCAGG | -0.03
27 | CTGTGCACGTGGGGGT | -0.2
28 | CTTTGCACGTGTCAGT | 0.01
29 | GCTAACACGTGTGTGA | 0.12
30 | CTTTGCACGTGGGGTT | -0.15
31 | TTTAGCACGTGAATGC | 0.25
32 | CATGGCACGTGTTGGA | -0.06
33 | TATTACACGTGACGGT | 0.14
34 | TTCATCACGTGGGCGT | -0.01
35 | TTTATCACGTGAATGG | 0.39
36 | TTTGCCACGTGGGTAT | -0.28
37 | AGCGACACGTGGGTTA | -0.08
38 | GGTGGCACGTGCTTGG | -0.04
39 | TGTTACACGTGGTCGG | -0.02
40 | GTGATCACGTGGAGAT | 0.21
41 | ACTGGCACGTGGTGCT | -0.2
42 | TACTCCACGTGGGTGT | -0.17
43 | CAGTGCACGTGTAGTT | -0.13
44 | TAGCGCACGTGGTTAG | -0.3
45 | TTAGGCACGTGATAAT | 0.01
46 | ATCATCACGTGTAGTG | 0.01
47 | TATCTCACGTGAGGGC | 0.42
48 | TATAACACGTGTCAGG | 0.19
49 | AAGGTCACGTGGGTCC | 0.03
50 | AGAGACACGTGGAGGT | 0.02

Row | Sequence | relative binding free energy [kcal/mol]
51 | ATAGTCACGTGGTATT | 0.04
52 | TGTTTCACGTGCAATA | 0.11
53 | CGGCACACGTGGGGGT | -0.14
54 | GTGGTCACGTGAGTGA | 0.4
55 | TCGTACACGTGGATGA | 0.16
56 | ATCGGCACGTGAGGGA | 0.13
57 | CAGAGCACGTGTTGTA | -0.07
58 | TAATACACGTGAGGTT | 0.24
59 | GCGGACACGTGGGGGT | -0.12
60 | TTGGACACGTGTTGTA | 0
61 | CGTACCACGTGGTGGT | -0.21
62 | TTTTCCACGTGTAGGC | 0.26
63 | TTGGTCACGTGCGGTC | 0.09
64 | AGTCGCACGTGGGCTT | -0.13
65 | TAATGCACGTGGACGT | 0.14
66 | TAGTACACGTGAAATT | 0.44
67 | TGTGTCACGTGTCGGT | 0.07
68 | AAGGACACGTGGTTGG | -0.02
69 | GTTGTCACGTGTTTGG | 0.22
70 | GATGTCACGTGTTGAG | 0.08
71 | CTGTTCACGTGGAGTG | 0.24
72 | ATTAGCACGTGGTATT | -0.19
73 | AGAATCACGTGAGGTG | 0.39
